Compound in the assay: CC[C@H](Nc1ncnc2[nH]cnc12)c1nc2cccc(F)c2c(=O)n1-c1ccccc1 [CAL-101]
The assay can be described thus: Viability of human cancer cell lines after 72 h of drug (GDSC screen). How it is done:
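Human cancer cell lines in 384-well plates, medium with 10% serum, drug for 72 h over a 256-fold dose range (nine 2-fold or five 4-fold steps up to the top dose). Adherent lines were fixed and stained with the nucleic acid dye Syto60, suspension lines read with resazurin; signal relative to control wells, capped at 0 and 100%. One two-parameter sigmoid per drug and line, fitted in a mixed model over all curves with the slope shared within a line.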

A lower IC50 marks a more sensitive line; a fit beyond the top or the lowest dose is shown as a bound at that dose. For AUC the same curve is integrated over the 256-fold range of doses and scaled to a fraction; the more sensitive the line, the further below 1.

By IC50 is commonly meant the concentration needed to halve the response being measured. On to “HCC1569 (breast, adherent, top dose 20 µM)”, for which the AUC came out at 0.867 and the IC50 is > 20 µM.
On to “HCC1599 (breast, suspension, top dose 20 µM)”, for which the AUC stood at 0.905 and the IC50 is > 20 µM.
In the case of “HCC1806 (breast, adherent, top dose 20 µM)”, the AUC came out at 0.989 and the half-inhibitory concentration (IC50) is > 20 µM.
Turning to “HCC1937 (breast, adherent, top dose 20 µM)”, the AUC was found to be 0.943 and the IC50 was > 20 µM.
The corresponding values for “HCC1954 (breast, adherent, top dose 20 µM)” are 0.962 and > 20 µM.
For “HCC2157 (breast, suspension, top dose 20 µM)” the same measures were 0.985 and > 20 µM.
Consider “HCC2218 (breast, suspension, top dose 20 µM)”, for which the AUC came to 0.941 and the IC50 was > 20 µM.
The corresponding values for “HCC2998 (large intestine, adherent, top dose 20 µM)” are 0.979 and > 20 µM.
In the case of “HCC-15 (lung squamous cell carcinoma, adherent, top dose 20 µM)”, the AUC amounted to 0.959 and the IC50 was > 20 µM.
For “HCC-33 (small cell lung carcinoma, adherent, top dose 20 µM)” the same measures were 0.965 and > 20 µM.
For “HCC-44 (lung adenocarcinoma, adherent, top dose 20 µM)” the same measures were 0.972 and > 20 µM.
The corresponding values for “HCC-56 (large intestine, adherent, top dose 20 µM)” are 0.94 and > 20 µM.
On to “HCC-78 (lung adenocarcinoma, adherent, top dose 20 µM)”, for which the AUC worked out at 0.872 and the IC50 was > 20 µM.
For “HCC-827 (lung adenocarcinoma, adherent, top dose 20 µM)” the same measures were 0.951 and > 20 µM.
Turning to “HCE-4 (oesophagus, adherent, top dose 20 µM)”, the AUC was determined as 0.983 and the IC50 is > 20 µM.
In the case of “HCT-15 (large intestine, adherent, top dose 20 µM)”, the AUC was 0.984 and the IC50 is > 20 µM.
For “HD-MY-Z (Hodgkin lymphoma, adherent, top dose 20 µM)” the same measures were 0.929 and > 20 µM.
For “HDLM-2 (Hodgkin lymphoma, suspension, top dose 20 µM)” the same measures were 0.962 and > 20 µM.
For “HDQ-P1 (breast, adherent, top dose 20 µM)” the same measures were 0.974 and > 20 µM.
For “HEC-1 (endometrium, adherent, top dose 20 µM)”, the AUC was found to be 0.987 and the IC50 was > 20 µM.
The corresponding values for “HEL (acute myeloid leukaemia, semi-adherent, top dose 20 µM)” are 0.949 and > 20 µM.
For “HGC-27 (stomach, adherent, top dose 20 µM)” the same measures were 0.962 and > 20 µM.
Take “HH (T-cell leukaemia, suspension, top dose 20 µM)”: the AUC came out at 0.495 and the IC50 was 1.21 µM.
Take “HL-60 (acute myeloid leukaemia, suspension, top dose 20 µM)”: the AUC came out at 0.923 and the IC50 is > 20 µM.
The corresponding values for HLE (liver, adherent, top dose 20 µM) are 0.989 and > 20 µM.
The corresponding values for “HMV-II (melanoma, adherent, top dose 20 µM)” are 0.962 and > 20 µM.
For “HN (head and neck, adherent, top dose 20 µM)” the same measures were 0.983 and > 20 µM.
In the case of “HO-1-N-1 (head and neck, adherent, top dose 20 µM)”, the AUC was 0.972 and the IC50 is > 20 µM.
The corresponding values for “HO-1-u-1 (head and neck, adherent, top dose 20 µM)” are 0.986 and > 20 µM.
The corresponding values for “HOP-62 (lung adenocarcinoma, adherent, top dose 20 µM)” are 0.933 and > 20 µM.
The corresponding values for “HOP-92 (large cell lung carcinoma, adherent, top dose 20 µM)” are 0.98 and > 20 µM.
Regarding “HOS (osteosarcoma, adherent, top dose 20 µM)”, the AUC turned out to be 0.992 and the IC50 is > 20 µM.
With “HPAC (pancreas, adherent, top dose 20 µM)”, the AUC came to 0.895 and the IC50 was > 20 µM.
For “HPAF-II (pancreas, adherent, top dose 20 µM)” the same measures were 0.887 and > 20 µM.
For “HSC-2 (head and neck, adherent, top dose 20 µM)” the same measures were 0.982 and > 20 µM.
Turning to “HSC-3 (head and neck, adherent, top dose 20 µM)”, the AUC was 0.99 and the IC50 is > 20 µM.
The corresponding values for “HSC-4 (head and neck, adherent, top dose 20 µM)” are 0.975 and > 20 µM.
As for “HSC-39 (stomach, suspension, top dose 20 µM)”, the AUC came to 0.986 and the IC50 is > 20 µM.
The corresponding values for “HT55 (large intestine, adherent, top dose 20 µM)” are 0.988 and > 20 µM.
The corresponding values for “HT (B-cell lymphoma, suspension, top dose 20 µM)” are 0.918 and > 20 µM.
For HT-3 (cervix, adherent, top dose 20 µM) the same measures were 0.983 and > 20 µM.
Regarding “HT-29 (large intestine, adherent, top dose 20 µM)”, the AUC turned out to be 0.952 and the IC50 was > 20 µM.
For “HT-115 (large intestine, adherent, top dose 20 µM)” the same measures were 0.991 and > 20 µM.
The corresponding values for “HT-144 (melanoma, adherent, top dose 20 µM)” are 0.981 and > 20 µM.
For “HT-1080 (fibrosarcoma, adherent, top dose 20 µM)” the same measures were 0.986 and > 20 µM.
For “HT-1197 (bladder, adherent, top dose 20 µM)”, the AUC stood at 0.985 and the IC50 was > 20 µM.
The corresponding values for “HT-1376 (bladder, adherent, top dose 20 µM)” are 0.981 and > 20 µM.
For “HTC-C3 (thyroid, adherent, top dose 20 µM)”, the AUC is 0.911 and the IC50 was > 20 µM.
For “HUTU-80 (digestive system, adherent, top dose 20 µM)” the same measures were 0.934 and > 20 µM.
The corresponding values for HeLa (cervix, adherent, top dose 20 µM) are 0.988 and > 20 µM.
As for “Hep 3B2_1-7 (liver, adherent, top dose 20 µM)”, the AUC came to 0.987 and the 50% inhibitory concentration (IC50) was > 20 µM.
The corresponding values for Hey (ovary, adherent, top dose 20 µM) are 0.977 and > 20 µM.
For “Hs633T (fibrosarcoma, adherent, top dose 20 µM)” the same measures were 0.979 and > 20 µM.
In the case of “Hs683 (glioma, adherent, top dose 20 µM)”, the AUC worked out at 0.964 and the IC50 was > 20 µM.
For “Hs746T (stomach, adherent, top dose 20 µM)” the same measures were 0.599 and 2.57 µM.
For “Hs766T (pancreas, adherent, top dose 20 µM)”, the AUC came out at 0.954 and the IC50 is > 20 µM.
The corresponding values for “Hs939-T (melanoma, adherent, top dose 20 µM)” are 0.986 and > 20 µM.
For “Hs940-T (melanoma, adherent, top dose 20 µM)” the same measures were 0.946 and > 20 µM.
Consider “Hs-445 (Hodgkin lymphoma, suspension, top dose 20 µM)”, for which the AUC came out at 0.863 and the IC50 was 15.2 µM.
For “Hs-578-T (breast, adherent, top dose 20 µM)” the same measures were 0.987 and > 20 µM.
The corresponding values for “HuCCT1 (biliary tract, adherent, top dose 20 µM)” are 0.902 and > 20 µM.
For HuH-7 (liver, adherent, top dose 20 µM) the same measures were 0.973 and > 20 µM.
Take “HuO9 (osteosarcoma, adherent, top dose 20 µM)”: the AUC turned out to be 0.887 and the IC50 is > 20 µM.
In the case of “HuO-3N1 (osteosarcoma, adherent, top dose 20 µM)”, the AUC was found to be 0.924 and the IC50 is > 20 µM.
For “HuP-T3 (pancreas, adherent, top dose 20 µM)” the same measures were 0.9 and > 20 µM.
For “HuP-T4 (pancreas, adherent, top dose 20 µM)”, the AUC was 0.954 and the IC50 is > 20 µM.
The corresponding values for “IA-LM (large cell lung carcinoma, adherent, top dose 20 µM)” are 0.98 and > 20 µM.
For “IGR-1 (melanoma, adherent, top dose 20 µM)” the same measures were 0.99 and > 20 µM.

The values above are taken from the supplement of paper PMC4967469.
